± gives the standard error. Variants at the floor of the assay are shown more often than the library holds them.
B1: glmS ribozyme (parent)
chain: AUAAAAGCGCCAGAACUACAGAAAUGUAGUUGACGAGGAGGAGGUUUAUCGAAUUUUCGGCGGAUGCCUCCAAA

What was measured:
Settings in all cases: with glucosamine-6-phosphate
glucosamine-6-phosphate [1] = variants of: B1; test: self-cleavage kobs at 640 uM GlcN6P; higher = faster cleavage; RNA array
How it was run: (§1)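 In situ transcription by E. coli RNA polymerase produced barcoded ribozyme variants on sequenced MiSeq chips, and a hybridised Cy3 probe tracked them at 37 °C. Glucosamine-6-phosphate was flowed in at 40 μM to 10 mM in HEPES/KCl/Mg(OAc)2 buffer. kcat and KM were taken from weighted Michaelis–Menten fits of kobs values from exponential decay fits.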

glucosamine-6-phosphate [2] = variants of: B1; test: self-cleavage kobs at 160 uM GlcN6P; higher = faster cleavage; RNA array
How it was run: as §1

glucosamine-6-phosphate [3] = variants of: B1; test: self-cleavage kobs at 2500 uM GlcN6P; higher = faster cleavage; RNA array
How it was run: as §1

glucosamine-6-phosphate [4] = variants of: B1; test: self-cleavage kobs at 10000 uM GlcN6P; higher = faster cleavage; RNA array
How it was run: as §1

Variant | self-cleavage kobs at 640 uM GlcN6P (glucosamine-6-phosphate [1]) [s⁻¹] | self-cleavage kobs at 160 uM GlcN6P (glucosamine-6-phosphate [2]) [s⁻¹] | self-cleavage kobs at 2500 uM GlcN6P (glucosamine-6-phosphate [3]) [s⁻¹] | self-cleavage kobs at 10000 uM GlcN6P (glucosamine-6-phosphate [4]) [s⁻¹]
C16G G29A U65C C68A | < 1e-05 |  |  | 
A14G G29U A52C C68A | 0.000113 ± 4.7e-05 | 0.000918 ± 0.00046 |  | 
A14U G29U U56G | 0.000178 ± 4.1e-05 |  | 0.000206 ± 7.4e-05 | 
C16U U46C U55A C70U | 0.00101 ± 0.00034 |  | 0.00219 ± 0.0006 | 0.00226 ± 0.00047
A14C G38U G44U C68G | < 1e-05 |  | < 1e-05 | 
C16A C34A U55C G59U G60U | < 1e-05 |  | < 1e-05 | 
G13U G29A A33U | < 1e-05 |  |  | 
A15C G35C C61U | < 1e-05 |  | < 1e-05 | 
A14C G41C C50G G51U A64G | < 1e-05 |  | < 1e-05 | 
A15C A39C C70G | < 1e-05 |  |  | 
A15G U65C C68G | < 1e-05 |  | < 1e-05 | 
A14C C58A | 3.29e-05 ± 1.1e-05 |  | 0.000102 ± 1.6e-05 | 0.000165 ± 1.7e-05
G13U G62U | < 1e-05 |  | < 1e-05 | 
A15G U47C U49C A52G C68A | < 1e-05 |  |  | 
C16A A42C U55A | < 1e-05 | < 1e-05 | < 1e-05 | < 1e-05
C16G U30A A42U | < 1e-05 |  |  | 
A14U A36U U47C | < 1e-05 |  | < 1e-05 | 
A15U G51U | < 1e-05 | < 1e-05 | < 1e-05 | < 1e-05
A14G G38U U56C | < 1e-05 |  |  | < 1e-05
A14C G41C U54G | < 1e-05 |  |  | 
C16G G35C A48G U57C G62A C67A U69A | < 1e-05 |  | < 1e-05 | < 1e-05
C16A G63U C67U | 0.000112 ± 4.7e-05 |  |  | 
A14U C16G G38U | < 1e-05 |  | < 1e-05 | 
A15G A39C A53G G62A | < 1e-05 |  |  | 
C16U A64G U65A C70U | 0.00104 ± 0.00025 | 8.56e-05 ± 2.7e-05 | 0.000964 ± 0.00024 | 
A15C U47A U49C U57G G63U U65A U69A | < 1e-05 |  |  | 
G13C U55A U69A | 0.00022 ± 7e-05 |  |  | 
C16A G51C | < 1e-05 | < 1e-05 | < 1e-05 | < 1e-05
G13C G38U | < 1e-05 | < 1e-05 |  | 
